Measured values reported in the supplement of paper PMC4967469.
By IC50 is meant the dose at which the fit gives 50% viability; a limit (>, <) means that the fit lies beyond the doses tested. AUC, from the same fit, is the share of area under the viability curve across the 256-fold dose range; values near 1 show little effect. A top dose marked as inferred was derived from the fitted curves, not read from the paper. For some of these results: Drugs with an entry number were screened twice under separate entries, and the two screens often disagree.

Tests used:
Test in all cases: Viability of human cancer cell lines after 72 h of drug (GDSC screen)
[1] = compound: O=C(c1cc(Cc2n[nH]c(=O)c3ccccc23)ccc1F)N1CCN(C(=O)C2CC2)CC1 [Olaparib]
Experimental: (§1)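 Human cancer cell lines in 384-well plates, medium with 10% serum, drug for 72 h over a 256-fold dose range (nine 2-fold or five 4-fold steps up to the top dose). Adherent lines were fixed and stained with the nucleic acid dye Syto60, suspension lines read with resazurin; signal relative to control wells, capped at 0 and 100%. One two-parameter sigmoid per drug and line, fitted in a mixed model over all curves with the slope shared within a line.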

[2] = compound: CC(C)=CC[C@@H](O)C1=CC(=O)c2c(O)ccc(O)c2C1=O [Shikonin]; conditions: top dose 16 µM; top dose inferred
Experimental: as §1

[3] = compound: Cc1cc(N2CCOCC2)cc2[nH]c(-c3c(NC[C@@H](O)c4cccc(Cl)c4)cc[nH]c3=O)nc12 [BMS-536924]; conditions: top dose 4 µM; screen: GDSC drug entry 1091; top dose inferred
Experimental: as §1

[4] = compound: Cc1ccc(-n2nc(C(C)(C)C)cc2NC(=O)Nc2ccc(OCCN3CCOCC3)c3ccccc23)cc1 [BIRB 0796]; conditions: top dose 10 µM; top dose inferred
Experimental: as §1

[5] = compound: Cc1cccc(-c2[nH]c(C(C)(C)C)nc2-c2ccc3nccnc3c2)n1 [SB-525334]; conditions: top dose 20 µM; top dose inferred
Experimental: as §1

[6] = compound: O=C1NC(=O)c2c1c(-c1ccccc1Cl)cc1[nH]c3ccc(O)cc3c21 [Wee1 inhibitor 681640]; conditions: top dose 2 µM; top dose inferred
Experimental: as §1

[7] = compound: NC(=O)c1ccc(N(C(N)=O)c2c(F)cccc2F)nc1-c1ccc(F)cc1F [VX-702]; conditions: top dose 2 µM; top dose inferred
Experimental: as §1

[8] = top dose 10 µM, screen: GDSC drug entry 1495
[9] = top dose 5 µM, screen: GDSC drug entry 1017, top dose inferred

Cell Line	AUC [1, 8]	IC50 [1, 8]	AUC [2]	IC50 [2]	AUC [3]	IC50 [3]	AUC [4]	IC50 [4]	AUC [5]	IC50 [5]	AUC [6]	IC50 [6]	AUC [7]	IC50 [7]	AUC [1, 9]	IC50 [1, 9]
786-0 (kidney, adherent)	0.945	> 10 µM	0.432	0.662 µM	0.951	> 4 µM	0.976	> 10 µM	0.972	> 20 µM	0.931	> 2 µM				
A172 (glioma, adherent)	0.96	> 10 µM	0.448	0.727 µM	0.967	> 4 µM	0.987	> 10 µM	0.966	> 20 µM	0.972	> 2 µM				
BCPAP (thyroid, adherent)	0.952	> 10 µM	0.437	0.684 µM	0.918	> 4 µM	0.963	> 10 µM	0.98	> 20 µM	0.974	> 2 µM				
BHY (head and neck, adherent)	0.953	> 10 µM	0.37	0.437 µM	0.944	> 4 µM	0.98	> 10 µM	0.974	> 20 µM	0.846	1.47 µM				
BPH-1 (prostate, adherent)	0.918	> 10 µM	0.501	1.01 µM	0.803	2.25 µM	0.942	> 10 µM	0.966	> 20 µM	0.822	1.34 µM				
BT-549 (breast, adherent)					0.976	> 4 µM	0.932	> 10 µM			0.962	> 2 µM	0.977	> 2 µM		
C3A (liver, adherent)	0.96	> 10 µM	0.414	0.576 µM	0.943	> 4 µM			0.988	> 20 µM	0.982	> 2 µM	0.987	> 2 µM	0.988	> 5 µM
CAL-54 (kidney, adherent)	0.981	> 10 µM	0.565	1.54 µM	0.891	> 4 µM	0.959	> 10 µM	0.979	> 20 µM	0.868	> 2 µM				
CHP-134 (neuroblastoma, suspension)							0.955	> 10 µM	0.878	> 20 µM	0.844	> 2 µM				
ChaGo-K-1 (non-small cell lung carcinoma, adherent)	0.926	> 10 µM	0.451	0.718 µM	0.878	> 4 µM	0.907	> 10 µM	0.955	> 20 µM	0.962	> 2 µM				
GAMG (glioma, adherent)	0.951	> 10 µM	0.584	1.72 µM	0.938	> 4 µM	0.964	> 10 µM	0.748	6.7 µM	0.855	1.72 µM				
HCC1806 (breast, adherent)	0.883	9.23 µM	0.508	1.05 µM	0.958	> 4 µM	0.964	> 10 µM	0.979	> 20 µM	0.875	1.69 µM				
HLE (liver, adherent)	0.983	> 10 µM	0.23	0.174 µM	0.915	> 4 µM	0.988	> 10 µM	0.963	> 20 µM	0.946	> 2 µM				
HeLa (cervix, adherent)			0.524	1.16 µM	0.871	3.46 µM			0.969	> 20 µM	0.988	> 2 µM	0.972	> 2 µM		
IGR-37 (melanoma, adherent)	0.981	> 10 µM	0.324	0.34 µM	0.802	1.76 µM			0.743	5.75 µM	0.861	1.46 µM			0.989	> 5 µM
KYSE-510 (oesophagus, adherent)	0.975	> 10 µM	0.336	0.383 µM	0.957	> 4 µM			0.975	> 20 µM	0.927	> 2 µM	0.991	> 2 µM	0.988	> 5 µM
LN-405 (glioma, adherent)	0.965	> 10 µM	0.668	3.32 µM	0.953	> 4 µM	0.969	> 10 µM	0.964	> 20 µM	0.975	> 2 µM			0.95	> 5 µM
MCF7 (breast, adherent)			0.453	0.742 µM	0.777	1.67 µM			0.986	> 20 µM	0.909	> 2 µM	0.986	> 2 µM		
MDA-MB-157 (breast, adherent)	0.97	> 10 µM	0.453	0.744 µM	0.948	> 4 µM	0.918	> 10 µM	0.979	> 20 µM	0.877	> 2 µM				
MDA-MB-231 (breast, adherent)			0.546	1.34 µM	0.96	> 4 µM			0.986	> 20 µM	0.929	> 2 µM	0.979	> 2 µM		
ME-180 (cervix, adherent)	0.956	> 10 µM	0.35	0.375 µM	0.908	> 4 µM			0.867	19.4 µM	0.94	> 2 µM	0.973	> 2 µM	0.985	> 5 µM
MKN1 (stomach, adherent)	0.978	> 10 µM	0.386	0.479 µM	0.943	> 4 µM	0.944	> 10 µM	0.944	> 20 µM	0.953	> 2 µM				
